System: Coa-F, Coa-R0, Efb-N, Efb-O, Efb-A binding to Fg
Test: Inhibition by FBE5 scFv-Fc of Coa and Efb fragment binding to immobilized human Fg
Set-up: species or system Staphylococcus aureus
Conditions: scFv-Fc 0.5, 5, 50 μg/ml
Procedure: To assess the inhibitory activity of anti-Coa scFv-Fc antibodies, 0.5 μg/well of human Fg was immobilized at 4° C. overnight in 50 mM Carbonate Buffer, pH 9.6. Indicated amounts (50, 5, 0.5 μg/ml) of scFv-Fcs prepared in 2% BSA+1×TBS+0.05% TWEEN® 20 were pre-incubated for 1 hour with a constant concentration of Coa or Efb fragments also prepared in 2% BSA+1×TBS+0.05% TWEEN® 20 at room temperature, 250 rpm shaking. Specifically, Coa-F, Coa-R0, Efb-N and Efb-O were at a fixed concentration of 10 nM; whereas Efb-A was at 750 nM. Fg-binding activity of each protein alone was also checked (no mAb control—0 μg/ml). The Fg-coated plate was blocked with 2% BSA-TBST and washed with PBST. […] Residual bound Coa and Efb fragments were detected with HRP-conjugated (HorseRadish Peroxidase-conjugated) α-GST-tag antibody, except for Efb-N, where an HRP-conjugated α-HIS-tag was used (see FIG. 18). HRP-tagged antibodies were diluted in 2% BSA+1×TBS+0.05% TWEEN® 20 and used at 1:10000 dilution. […] HRP signal was developed using […]™ OPD tablets using manufacturer's guidelines. Binding of Coa and Efb fragments to Fg (no mAb control) was set to 100% and residual binding to Fg of Coa and Efb fragments in the presence of different concentrations of antibodies was calculated and represented.
To assess the inhibitory activity of anti-Coa scFv-Fc antibodies, 0.5 μg/well of human Fg was immobilized at 4° C. overnight in 50 mM Carbonate Buffer, pH 9.6. Indicated amounts (0, 0.5, 5, and 50 μg/ml) of scFv-Fcs were pre-incubated for 1 hour with a constant concentration of Coa or Efb fragments. Specifically, Coa-F, Coa-R0, Efb-N and Efb-O were at a fixed concentration of 10 nM; whereas Efb-A was at 750 nM. […] Residual bound Coa and Efb fragments were detected with HRP-conjugated (HorseRadish Peroxidase-conjugated) α-GST-tag antibody, except for Efb-N, where an HRP-conjugated α-HIS-tag was used. Binding of Coa and Efb fragments to Fg (no mAb control) was set to 100% and residual binding to Fg of Coa and Efb fragments in the presence of different concentrations of antibodies was calculated and represented.

B1: FBE5-D10: VH SEQ ID NO: 78, VL SEQ ID NO: 108 (antibody, V domains shown)
VH: QVQLVQSGGGVVQPGRSLRLSCAASGFTFSNYGMHWVRQAPGKGLEWVAVISYDGSNKYYADSVKGRFTISRDNSKNTLYLQMNSLRAEDTAVYYCAKDSREQWLAHWGQGTLVTVSS
VL: QSVLTQPPSASGTPGQRVTISCSASSSNIGSNTVNWYQQLPGTAPKLLIYSNNQRPSGVPDRFSGSRSGTSASLAISGLQSEDEADYYCAAWDDSLNALVFGGGTKLTVL
inhibition of CoaF, CoaRO and EfbA binding to Fg: clear inhibition | inhibition of EfbN and EfbO binding to Fg: less efficient | inhibition of binding to Fg of all proteins tested (Coa-F, Coa-R0, Efb-N, Efb-O 10 nM, Efb-A 750 nM): dose dependent inhibition of all proteins tested

Source: patent US11407819B2, “Compositions and use of a fibrinogen binding motif present in EFB and COA for therapeutics and vaccines against Staphylococcus aureus” (priority 2013, dated 2022)
